The record followed here is the RNAGym collection of RNA variant scans (doi:10.1073/pnas.2313332121).

B1: TPR 5TU (parent)
chain: GGAUCUUCUCGAUCUAACAAAAAAGACAAAUCUGCCACAAAGCUUGAGAGCAUCUUCGGAUGCAGAGGCGGCAGCCUUCGGUGGCGCGAUAGCGCCAACGUUCUCAACUAUGACACGCAAAACGCGUGCUCCGUUGAAUGGAGUUUAUCAUG

Variants at the floor of the assay are shown more often than the library holds them.

The data set covers variants of B1. In words: polymerase ribozyme fitness, log enrichment relative to wild type (log ratio); higher = more active; in vitro selection for triplet polymerase activity. In short, it runs like this:
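Streptavidin-bead capture of gel-excised extended constructs, followed by RT-PCR, closed a single triplicate in vitro selection round. That round began by annealing PCR-built, transcribed mutant libraries of each subunit of a heterodimeric triplet polymerase ribozyme with a biotinylated primer, the partner subunit and triplets, then incubating them frozen at −7 °C. After Illumina sequencing of inputs and outputs, genotypes needed ≥10 input reads and ≥1 read per output. Fitness is the base-2 logarithm of genotype enrichment over wild-type enrichment, using inverse-variance-weighted replicate averages.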
As for G58C G88A U90A A98G A115G, the “polymerase ribozyme fitness (log ratio)” value was ≤ -4.2.

As for C57U A60C G86A C105G, the “polymerase ribozyme fitness (log ratio)” value is ≤ -4.2.

Turning to G58U A110G A113U G136U, the “polymerase ribozyme fitness (log ratio)” value is ≤ -4.2. The figure for C57U C125A is -0.844; for G58C G59U G81U C87G it is ≤ -4.2. G58A U90C C95U A98G A110C A113U: the “polymerase ribozyme fitness (log ratio)” value was ≤ -4.2.

Take C57U A66C G92U C93A: the “polymerase ribozyme fitness (log ratio)” value is ≤ -4.2.

For the variant C57U C76A C79U C85U G86U U134C, the “polymerase ribozyme fitness (log ratio)” value was ≤ -4.2. For the variant C57G C96G U104G, the “polymerase ribozyme fitness (log ratio)” value was -4.16. The figure for C57G G65C G84A U139A G140U is ≤ -4.2. Regarding C57G C87A, the “polymerase ribozyme fitness (log ratio)” value was ≤ -4.2. The result for G58C A66C G86A U90A C99A C105A C116U reads ≤ -4.2. The figure for G59A U82G C87U G92U A98U G136U is ≤ -4.2; for G59A C76G it is ≤ -4.2; for C57G U146A it is -0.273. On to G58U U61A A91G G94A, for which the “polymerase ribozyme fitness (log ratio)” value is ≤ -4.2. For G58A G59A C96A, the “polymerase ribozyme fitness (log ratio)” value was determined as 0.0408. The result for G59A C93U reads -3.33; that for C57U A66C, -3.93; that for C57U A66G, -3.4.

Turning to G58U U82A C116U, the “polymerase ribozyme fitness (log ratio)” value came to 0.803. As to G58C U61A A73G A91U A120C, the “polymerase ribozyme fitness (log ratio)” value is ≤ -4.2. As to G59C C63G C69G G74A A89C C103G G141C, the “polymerase ribozyme fitness (log ratio)” value is ≤ -4.2. The figure for G58C G83A G84U G92U U135A U139G G141A is ≤ -4.2; for G58A C76G U139A it is ≤ -4.2; for G58A U61G G92C A107C A110C G117C it is ≤ -4.2.

Take G59A G80A C87A: the “polymerase ribozyme fitness (log ratio)” value was ≤ -4.2. With G59C A66U C87U U102G C116A, the “polymerase ribozyme fitness (log ratio)” value was ≤ -4.2. The figure for G58C C79U C85U C93U A113G is ≤ -4.2.

Turning to G58C C87G U144C, the “polymerase ribozyme fitness (log ratio)” value is ≤ -4.2.

On to G59C C75U A98U, for which the “polymerase ribozyme fitness (log ratio)” value was -0.152. Take G59A G140C U144G: the “polymerase ribozyme fitness (log ratio)” value was -3.79. The figure for G59A C99G is -1.14. For the variant G59C A89U G92C A121G, the “polymerase ribozyme fitness (log ratio)” value is -2.45.

Take C57G G71C C96U G112U C149A: the “polymerase ribozyme fitness (log ratio)” value is ≤ -4.2. In the case of C57G G68U, the “polymerase ribozyme fitness (log ratio)” value is ≤ -4.2.

With G58A U61A G74U C129A U144A, the “polymerase ribozyme fitness (log ratio)” value was ≤ -4.2. On to G58C U82G C99G, for which the “polymerase ribozyme fitness (log ratio)” value is -1.45.

As to C57U G68U, the “polymerase ribozyme fitness (log ratio)” value was -3.89. On to G59A A66C C69G C85G, for which the “polymerase ribozyme fitness (log ratio)” value is ≤ -4.2. For C57U C87G A120U U135G A142C G152U, the “polymerase ribozyme fitness (log ratio)” value is ≤ -4.2. Regarding G58A A64U G74A C79A U90C C96A C149A, the “polymerase ribozyme fitness (log ratio)” value is ≤ -4.2. The figure for C57U G58C G74C U77A is ≤ -4.2; for C57U G65C C85A it is ≤ -4.2.

With C57G G67A C69U G80A G94A C103A G126C G136U A137G, the “polymerase ribozyme fitness (log ratio)” value was ≤ -4.2. For G59A C87U, the “polymerase ribozyme fitness (log ratio)” value is -1.42. C57G C93U A115U: the “polymerase ribozyme fitness (log ratio)” value was -3.44. The result for C57G G70A C95U C105U A113C C114G reads ≤ -4.2. The result for G58A G65C A73G C85G C125A G140U G152C reads ≤ -4.2; that for C57G G80A G84A, -0.169. The figure for G58U C85U G117A A121G G136U G143C is ≤ -4.2; for G59A C103A A107U A110U U111A C118A A138G it is ≤ -4.2; for C57U U78G U82G G88C U134G it is ≤ -4.2. G59A A73G U90C C93G C131U U144G: the “polymerase ribozyme fitness (log ratio)” value is ≤ -4.2. The result for G58C G84U A97U reads -3.58; that for G58A C93A G112C, -4.12; that for C57U C76G G84U C96U U134A, ≤ -4.2.

As to G58C G59U G70C C85U A121U U139A, the “polymerase ribozyme fitness (log ratio)” value was ≤ -4.2. For the variant G58A C75U, the “polymerase ribozyme fitness (log ratio)” value is -1.82. With G58A G68A U78C C85U G143U, the “polymerase ribozyme fitness (log ratio)” value is ≤ -4.2. For the variant C57G G59A C118U C125A G136C, the “polymerase ribozyme fitness (log ratio)” value is -3.19.

On to C57G U82A A98G, for which the “polymerase ribozyme fitness (log ratio)” value is -3.69. The result for G58U C85A C95G C96U reads -3.24. Take G58C U82A G143C: the “polymerase ribozyme fitness (log ratio)” value was -1.86. On to G58C G86C A89U, for which the “polymerase ribozyme fitness (log ratio)” value is -3.91. The result for C57G C63A G70C G86U G140U reads ≤ -4.2; that for C57U U101A, 0.41; that for C57U U101G, -0.262. For the variant G59A A89U, the “polymerase ribozyme fitness (log ratio)” value was -0.162. With G59A A137U G141C, the “polymerase ribozyme fitness (log ratio)” value is -3.95.

With C57U G83U, the “polymerase ribozyme fitness (log ratio)” value is -1.72.

As to C57U G88U U102C C132U, the “polymerase ribozyme fitness (log ratio)” value was ≤ -4.2.

In the case of G59A G83C A89U, the “polymerase ribozyme fitness (log ratio)” value is -1.39. The figure for C57U G126U U127G is ≤ -4.2.

Regarding G58C G71A G86A C118G, the “polymerase ribozyme fitness (log ratio)” value was ≤ -4.2. The result for C57U U127C reads -2.13.

With G58A C85G, the “polymerase ribozyme fitness (log ratio)” value is -2.86. The figure for C57G G80C G84A G94U U135G is ≤ -4.2; for C57U A91G A97G U135A G143A it is ≤ -4.2. The result for G58U G65U C69A G136U A137U reads ≤ -4.2; that for G58A C103G U111C G117A, ≤ -4.2. The result for G58C U61A A64U U77A C95G U102C reads ≤ -4.2. As for G58C C93G U127A C131U U146C, the “polymerase ribozyme fitness (log ratio)” value was ≤ -4.2.
